# The other results are listed elsewhere or left out.
# B1: Fm1D (Escherichia coli) (protein)
# chain: FSCNVDGGSSIGAGTTSVYVNLDPVIQPGQNLVVDLSQHISCWNDYGGWYDTDHINLVQGSAFAGSLQSYKGSLYWNNVTYPFPLTTNTNVLDIGDKTPMPLPLKLYITPVGAAGGVVIKAGEVIARIHMYKIATLGSGNPRNFTWNIISNNSVVMPTHHHHHH
# Key:
# Test in all cases: glycan array binding signal (z-score within array); higher = stronger binding
# Conditions in all cases: glycan notation: IUPAC condensed, linker removed
# [1] = target: Gal6S(b1-4)GlcNAc
# Procedure, shortened: (§1)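 Glycan array binding is given as a within-array Z-score, which can be read as non-binding when negative. The arrays, 3228 of them, came from the Consortium for Functional Glycomics database and were retained only where the protein sequence was available. Z-scores were averaged across arrays of the same protein sequence at different concentrations or buffers and across linkers.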
# [2] = target: Gal6S(b1-4)GlcNAc6S
# Procedure, shortened: as §1
# [3] = target: GalNAc(a1-3)Gal
# Procedure, shortened: as §1
# [4] = target: GalNAc(a1-3)GalNAc
# Procedure, shortened: as §1
# [5] = target: GalNAc(a1-3)GalNAc(a1-3)Gal(a1-4)Gal(b1-4)GlcNAc
# Procedure, shortened: as §1
# [6] = target: GalNAc(a1-3)GalNAc(b1-3)Gal(a1-4)Gal(b1-4)Glc
# Procedure, shortened: as §1
# [7] = target: GalNAc(b1-3)Gal
# Procedure, shortened: as §1
# [8] = target: GalNAc(b1-3)Gal(a1-4)Gal(b1-4)GlcNAc
# Procedure, shortened: as §1
# [9] = target: GalNAc(b1-3)Gal(a1-4)Gal(b1-4)GlcNAc(b1-3)Gal(b1-4)Glc
# Procedure, shortened: as §1
# [10] = target: GalNAc(b1-3)Gal(a1-6)Gal(b1-4)Glc
# Procedure, shortened: as §1
# [11] = target: GalNAc(b1-3)GalNAc
# Procedure, shortened: as §1
# [12] = target: GalNAc(b1-3)GlcNAc
# Procedure, shortened: as §1
# [13] = target: GalNAc(b1-4)Gal(b1-4)Glc
# Procedure, shortened: as §1
# [14] = target: GalNAc(b1-4)GlcNAc
# Procedure, shortened: as §1
# [15] = target: GalNAc(b1-4)GlcNAc(b1-2)Man
# Procedure, shortened: as §1
# [16] = target: GalNAc(b1-4)GlcNAc(b1-2)Man(a1-3)[GalNAc(b1-4)GlcNAc(b1-2)Man(a1-6)]Man(b1-4)GlcNAc(b1-4)GlcNAc
# Procedure, shortened: as §1
# [17] = target: GalNAc(b1-4)GlcNAc(b1-3)GalNAc(b1-4)GlcNAc
# Procedure, shortened: as §1
# [18] = target: GalNAc(b1-4)GlcNAc6S
# Procedure, shortened: as §1
# [19] = target: GalNAc(b1-6)GalNAc
# Procedure, shortened: as §1
# [20] = target: GalNAc3S(b1-4)GlcNAc
# Procedure, shortened: as §1
# [21] = target: GalNAc3S(b1-4)GlcNAc3S
# Procedure, shortened: as §1
# [22] = target: GalNAc3S(b1-4)[Fuc(a1-3)]GlcNAc
# Procedure, shortened: as §1
# [23] = target: GalNAc4S6S(b1-4)GlcNAc
# Procedure, shortened: as §1
# [24] = target: GalNAc6S(b1-4)GlcNAc
# Procedure, shortened: as §1
# [25] = target: Glc(a1-4)Glc
# Procedure, shortened: as §1
# [26] = target: Glc(a1-4)Glc(a1-4)Glc(a1-4)Glc
# Procedure, shortened: as §1
# [27] = target: Glc(a1-6)Glc(a1-6)Glc
# Procedure, shortened: as §1
# [28] = target: Glc(a1-6)Glc(a1-6)Glc(a1-6)Glc
# Procedure, shortened: as §1
# [29] = target: Glc(b1-4)Glc
# Procedure, shortened: as §1
# [30] = target: Glc(b1-6)Glc
# Procedure, shortened: as §1
# [31] = target: GlcA(b1-3)Gal
# Procedure, shortened: as §1
# [32] = target: GlcA(b1-3)GlcNAc
# Procedure, shortened: as §1
# [33] = target: GlcA(b1-6)Gal
# Procedure, shortened: as §1
# [34] = target: GlcA3S(b1-3)Gal(b1-4)GlcNAc(b1-2)Man
# Procedure, shortened: as §1
# [35] = target: GlcA3S(b1-3)Gal(b1-4)GlcNAc(b1-3)Gal(b1-4)Glc
# Procedure, shortened: as §1
# [36] = target: GlcNAc(a1-3)Gal(b1-4)GlcNAc
# Procedure, shortened: as §1
# [37] = target: GlcNAc(a1-4)Gal(b1-3)GlcNAc
# Procedure, shortened: as §1
# [38] = target: GlcNAc(a1-4)Gal(b1-4)GalNAc
# Procedure, shortened: as §1
# [39] = target: GlcNAc(a1-4)Gal(b1-4)GlcNAc
# Procedure, shortened: as §1
# [40] = target: GlcNAc(a1-4)Gal(b1-4)GlcNAc(b1-3)Gal(b1-4)Glc
# Procedure, shortened: as §1
# [41] = target: GlcNAc(a1-4)Gal(b1-4)GlcNAc(b1-3)Gal(b1-4)GlcNAc
# Procedure, shortened: as §1
# [42] = target: GlcNAc(a1-4)Gal(b1-4)GlcNAc(b1-3)Gal(b1-4)GlcNAc(b1-3)Gal(b1-4)GlcNAc
# Procedure, shortened: as §1
# [43] = target: GlcNAc(a1-4)Gal(b1-4)GlcNAc(b1-3)Gal(b1-4)[Fuc(a1-3)]GlcNAc(b1-3)Gal(b1-4)[Fuc(a1-3)]GlcNAc
# Procedure, shortened: as §1
# [44] = target: GlcNAc(a1-6)Gal(b1-4)GlcNAc
# Procedure, shortened: as §1
# [45] = target: GlcNAc(b1-2)Gal(b1-3)GalNAc
# Procedure, shortened: as §1
binder,measurement,setting,value
B1,glycan array binding signal (z-score),[1],-0.148
same,glycan array binding signal (z-score),[2],-0.137
same,glycan array binding signal (z-score),[3],-0.06
same,glycan array binding signal (z-score),[4],-0.144
same,glycan array binding signal (z-score),[5],-0.148
same,glycan array binding signal (z-score),[6],-0.15
same,glycan array binding signal (z-score),[7],0.01
same,glycan array binding signal (z-score),[8],-0.036
same,glycan array binding signal (z-score),[9],-0.128
same,glycan array binding signal (z-score),[10],0.053
same,glycan array binding signal (z-score),[11],-0.143
same,glycan array binding signal (z-score),[12],-0.144
same,glycan array binding signal (z-score),[13],-0.135
same,glycan array binding signal (z-score),[14],-0.149
same,glycan array binding signal (z-score),[15],-0.145
same,glycan array binding signal (z-score),[16],-0.138
same,glycan array binding signal (z-score),[17],-0.15
same,glycan array binding signal (z-score),[18],-0.149
same,glycan array binding signal (z-score),[19],-0.146
same,glycan array binding signal (z-score),[20],-0.143
same,glycan array binding signal (z-score),[21],-0.147
same,glycan array binding signal (z-score),[22],-0.146
same,glycan array binding signal (z-score),[23],-0.14
same,glycan array binding signal (z-score),[24],-0.149
same,glycan array binding signal (z-score),[25],-0.142
same,glycan array binding signal (z-score),[26],-0.141
same,glycan array binding signal (z-score),[27],-0.146
same,glycan array binding signal (z-score),[28],-0.135
same,glycan array binding signal (z-score),[29],-0.145
same,glycan array binding signal (z-score),[30],-0.141
same,glycan array binding signal (z-score),[31],-0.143
same,glycan array binding signal (z-score),[32],-0.14
same,glycan array binding signal (z-score),[33],-0.114
same,glycan array binding signal (z-score),[34],-0.145
same,glycan array binding signal (z-score),[35],-0.145
same,glycan array binding signal (z-score),[36],-0.149
same,glycan array binding signal (z-score),[37],-0.147
same,glycan array binding signal (z-score),[38],-0.145
same,glycan array binding signal (z-score),[39],-0.148
same,glycan array binding signal (z-score),[40],-0.148
same,glycan array binding signal (z-score),[41],-0.148
same,glycan array binding signal (z-score),[42],-0.149
same,glycan array binding signal (z-score),[43],-0.123
same,glycan array binding signal (z-score),[44],-0.144
same,glycan array binding signal (z-score),[45],-0.147

# Source: the supplement of paper PMC8728848
